# Assay results reported in PubChem BioAssay AID686978 (National Center for Advancing Translational Sciences (NCATS), 2013).
# “And” between values parts separate entries of the source, which are not always exact repeats. Equal entries are not always repeated. Hit rate of the full screen: of about 420,000 compounds, about 64,000 (15%) were called active. The inconclusive results got no clear call from the source; some entries with a clear call stand among them for comparison. The call rests on the fitted dose curve; in most records, active means well fitted inhibition curve with a large enough effect; inconclusive means small, poorly fitted or top-dose-only effect; inactive means flat fitted curve, though single readings scatter. Where the call is inconclusive, the potency comes from a doubtful curve fit.
# Experiment: qHTS for Inhibitors of human tyrosyl-DNA phosphodiesterase 1 (TDP1): qHTS in cells in absence of CPT; further: nearly all actives have a fitted effect of over 55% in size
# Details: DT40 Tdp1-/- hTDP1 cells, no CPT, ATP luminescence, 48 h; activity change, negative = growth inhibition: at 46.2 µM (top of the series) unless noted
# Procedure, shortened: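 Seeded 400 DT40-hTDP1 cells/well (vehicle DMSO, no 20 nM CPT); pinned compounds; ≥48 hr at 37 °C; CellTiter-Glo luminescence as viability measure.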
# On the % scale 0 is the no-effect control and ±100 the full control effect; potency means the concentration at half of the fitted maximal effect; tags describe the fitted curve by direction and shape.
SMILES,Potency,"activity change, negative = growth inhibition"
CCOC(=O)C1=C(CSc2nc3c(cc2C#N)CN(C)CC3)OC(N)=C(C#N)C1c1ccc(Cl)cc1 (centres undefined),"inconclusive: 20.6 µM [inhibitor, single point]",–
COc1ccccc1C1c2c(C)nn(-c3ccccc3)c2NC(=O)C1NC(=O)c1ccccc1 (centres undefined),"inconclusive: 29.1 µM [inhibitor, single point]",–
Cc1cc(C)c2c(C)c(C(=O)N3CCC(c4nc5ccccc5s4)CC3)oc2c1,"inconclusive: 10.3 µM [inhibitor, partial curve]",–
O=C(Nc1ccccc1)OC1CC2CC1C1CCCC21 (centres undefined),"inconclusive: 14.6 µM [inhibitor, partial curve]",–
Cc1ccccc1-c1cnc(C(O)c2ccc(Cl)c(F)c2)[nH]1 (centres undefined),inactive,–
COc1cc(C2c3c(oc4ccc(C)cc4c3=O)C(=O)N2Cc2ccc(F)cc2)ccc1O (centres undefined),inactive,–
COc1ccc(C(=O)C2CCCN(C(=O)/C=C/c3ccccn3)C2)c(C)c1 (centres undefined),"inconclusive: 29.1 µM [inhibitor, single point]",–
Cc1cccc(Nc2nnc(SCC(=O)Nc3ccccc3[N+](=O)[O-])s2)c1,active: 16.4 µM,–
O=C(c1ccccc1F)N(NC(=O)C(O)(c1ccccc1)c1ccccc1)c1ccccc1,"inconclusive: 29.1 µM [inhibitor, single point]",–
N#Cc1c(N)nc2c(c1N)CC(C(F)(F)F)O2 (centres undefined),"inconclusive: 20.6 µM [inhibitor, partial curve, poor fit]",–
Cc1nc2c3ccccc3nc(NNC(=O)CCC(=O)N3CCN(c4ccccc4F)CC3)n2n1,"inconclusive: 23.1 µM [inhibitor, partial curve, poor fit]",–
COc1cc(/C=N/NC(=O)c2ccccn2)ccc1OC(=O)c1ccc(Br)cc1,"inconclusive: 20.6 µM [inhibitor, single point]",–
C[C@@H]1CC[C@H]2[C@H](C)[C@H]3CC[C@H]4C5[C@@H](O)CC6=CC(=O)CC[C@]6(C)[C@H]5C[C@H]4C3C(=O)N2C1 (some centres undefined),"inconclusive: 1.46 µM [inhibitor, partial curve, poor fit]",–
Cc1ccc(NC(=O)CCC(=O)N2CCOc3ccccc32)c(Cl)c1,"inconclusive: 18.4 µM [inhibitor, single point]",–
Cc1ccc(CNC(=O)CSc2c3c(nc4ccc(Cl)cc24)CCCC3)o1,"inconclusive: 29.1 µM [inhibitor, single point]",–
O=C(COCC(=O)NCc1ccccc1)NCc1ccccc1,inactive,–
CCOc1ccc(-n2nnnc2SCC(=O)NNC(=O)c2ccco2)cc1,"inconclusive: 25.9 µM [inhibitor, single point]",–
CC1CCN(C(=O)CCc2nnc3ccc(NCCCN4CCCC4=O)nn23)CC1,inactive,–
CCCNC(=O)C(Cc1ccc(I)cc1)NC(=O)c1ccc2ccccc2n1 (centres undefined),active: 20.6 µM,–
Cc1ccc(C(=O)Nc2ccccc2F)cc1S(=O)(=O)N1CCOCC1,"inconclusive: 20.6 µM [inhibitor, single point]",–
COC(=O)C1=CO[C@@H](O[C@@H]2O[C@H](CO)[C@@H](O)[C@H](O)[C@H]2O)C2C1CC(O)O[C@H]2C (some centres undefined),inactive,–
COC(=O)[C@@H]1C[C@@H](NC(=O)c2cccc3c(C)c(C)[nH]c23)CN1Cc1cccc2ccccc12,inactive,–
CCc1ccc(N(C(=O)CCC(=O)Nc2cc(C)on2)C(C(=O)NC2CCCC2)c2ccco2)cc1 (centres undefined),"inconclusive: 25.9 µM [inhibitor, single point]",–

SMILES,Potency,"activity change, negative = growth inhibition"
Cc1ccc(S(=O)(=O)Nc2ccc3c(c2)C(=O)N([C@@H](C)CO)C[C@@H](C)[C@@H](CN(C)S(=O)(=O)c2ccccc2)OCCCC[C@H](C)O3)cc1,active: 10.3 µM,–
O=C(CSc1nc(=O)n(CCCN2CCOCC2)c2c1CCCC2)Nc1ccc(F)cc1,inactive,–
CC(C)CC1Nc2ncnc(N3CCN(c4ccccn4)CC3)c2N(Cc2ccccc2)C1=O (centres undefined),"inconclusive: 29.1 µM [inhibitor, single point] and inconclusive: 16.4 µM [inhibitor, single point]",–
N#Cc1ccccc1NC(=O)C(=O)NCC(c1ccc2c(c1)OCO2)N1CCN(c2ccccc2)CC1 (centres undefined),active: 8.2 µM,–
S=C(NCc1ccco1)N/N=C/c1ccc(Cl)cc1,active: 20.6 µM,–
Cc1cc(Cl)ccc1OC(C)C(=O)N1CCCN(C(=O)C(C)Oc2ccc(Cl)cc2C)CC1 (centres undefined),active: 20.6 µM,–
C/C(=N\NC(=O)c1ccc(Cl)cc1)c1ccc2[nH]ccc2c1,"inconclusive: 32.6 µM [inhibitor, single point]",–
COc1ccccc1C(CNC(=O)c1ccc(-c2ccccc2Cl)o1)N1CCCC1 (centres undefined),active: 18.4 µM,–
Cc1cccc(N(CC(=O)NCc2ccc3c(c2)OCO3)C(=O)CCC(=O)Nc2ccccn2)c1C,"inconclusive: 16.4 µM [inhibitor, partial curve, poor fit]",–
Cc1cc(C)c(C)c(OCC(=O)O/N=C(\N)c2cccnc2)c1,"inconclusive: 29.1 µM [inhibitor, single point]",–
CCOc1ccc(CNc2ccc(N3CCCC3)cc2)cc1,active: 8.2 µM,–
N#C/C(=C/c1ccc(CNS(=O)(=O)c2ccccc2)o1)C(=O)NCc1ccccc1,"inconclusive: 25.9 µM [inhibitor, single point]",–
CC1=C(C(=O)Nc2ccccc2C)C(c2ccc(C)o2)n2c(s/c(=C/c3ccccc3)c2=O)=N1 (centres undefined),"inconclusive: 11.2 µM [inhibitor, single point]",–
O=C1C2CC(O)CN2C(=S)N1Cc1ccccc1 (centres undefined),inactive,–
CC(C)CC(=O)O/N=C1\C(=O)N(c2ccccc2)c2ccccc21,active: 23.1 µM,–
O=S(=O)(c1cc(Br)c(Cl)s1)N1CCCC1,inactive,–
O=C(Nc1ccc2c(c1)OCO2)c1cc(C2CCCCN2C(=O)c2ccccc2)on1 (centres undefined),active: 9.2 µM,–
CCC(=O)N1CCCc2cc(S(=O)(=O)Nc3ccc(C)c(C)c3)ccc21,active: 18.4 µM,–
CNc1nc(NCc2ccco2)c2ccccc2n1,active: 15.8 µM,–
COc1cc(CN2CCc3nc(N4CCN(c5ccccc5F)CC4)ncc3C2)ccc1OC(C)C,inactive,–
COc1cccc(N2CN(C3CCCCC3)CNC2=S)c1,"inconclusive: 29.1 µM [inhibitor, single point]",–
COc1ccc2[nH]c(C(=O)N3CCC(CO)(Cc4cccc(C(F)(F)F)c4)CC3)c(C)c2c1,active: 20.6 µM,–
CC(C)=CCCC(C)CN1CCC(N2CCC(C(=O)N3CCOCC3)CC2)CC1 (centres undefined),"inconclusive: 29.1 µM [inhibitor, single point]",–

SMILES,Potency,"activity change, negative = growth inhibition"
Cc1ccc(NC(=S)N=Nc2c(O)[nH]c3ccccc23)cc1,active: 7.31 µM,–
COc1ccccc1NC(=O)c1c(C)nn(-c2ccccc2)c1Cl,"inconclusive: 25.9 µM [inhibitor, single point]",–
NC(=S)N/N=C\c1c(OCc2ccccc2Cl)ccc2ccccc12,"inconclusive: 3.26 µM [inhibitor, partial curve, poor fit]",–
COc1ccc(NC(=O)C(CCS(C)(=O)=O)NC(C)=O)cc1 (centres undefined),inactive,–
COCCOc1cc(N(CC(=O)N(C)C)S(=O)(=O)c2ccccc2)c(Cl)cc1Cl,"inconclusive: 18.4 µM [inhibitor, single point]",–
Cc1ccccc1S(=O)(=O)Cc1ccc(C(=O)NCCN(C)Cc2ccccc2)o1,inactive,–
Cn1cnc(S(=O)(=O)N2CCC(C(=O)N3CCN(c4cccc(C(F)(F)F)c4)CC3)CC2)c1,"inconclusive: 25.9 µM [inhibitor, single point]",–
N/C(Cc1ccccc1)=N\OC(=O)c1cccc2ccccc12,"inconclusive: 29.1 µM [inhibitor, single point]",–
O=C(NCC1CC1(Cl)Cl)Nc1ccc(Cl)c(Cl)c1 (centres undefined),"inconclusive: 23.1 µM [inhibitor, single point]",–
CCOC(=O)c1c(C)[nH]c(C)c1S(=O)(=O)NCC(=O)N(C)c1ccc(C)c(C)c1,"inconclusive: 29.1 µM [inhibitor, single point]",–
O=C(Nc1ccccc1N1CCCCC1)c1ncoc1-c1cccc(F)c1,–,inconclusive: -30.1% [inhibitor]
C[C@@H]1CN([C@H](C)CO)C(=O)CCCn2nncc2CO[C@@H]1CN(C)C(=O)Nc1ccc2c(c1)OCO2,inactive,–
CC(C)(C)c1ccc(NC(=O)CSc2nnc3scc(-c4ccccc4)n23)cc1,"inconclusive: 25.9 µM [inhibitor, single point]",–
COc1ccc(Nc2nc(N)nc(C(F)(F)F)n2)c(OC)c1,inactive,–
O=C(CCc1ccccc1)N1CCN(c2ccc(F)cc2)CC1,inactive,–
COc1cc(/C=N/Nc2nc(N3CCCC3)nc(N3CCCC3)n2)ccc1OCc1ccccc1F,active: 20.6 µM,–
O=C(CSc1ncnc2c1oc1ccccc12)Nc1cccc(Cl)c1,inactive,–
O=C(CCCOc1ccc(Cl)cc1Cl)NC(Cc1ccccc1)C(=O)O (centres undefined),inactive,–
N#Cc1ccccc1NC(=O)CN1CCOCC1,"inconclusive: 29.1 µM [inhibitor, single point]",–
CCOC(=O)CCC(=O)c1c(C)oc2ccc(OC)cc12,"inconclusive: 18.4 µM [inhibitor, partial curve, poor fit]",–
Cc1ccc(CN(C)C(=O)c2ccccc2Oc2ccccc2)o1,"inconclusive: 18.4 µM [inhibitor, single point]",–
CC[N+](CC)(CC)c1ccc(/C=C/c2ccc3ccccc3n2)cc1,active: 0.0708 µM,–
COc1ccc(C2=NN(CN3C(=O)C(=O)c4ccccc43)C(c3ccc(OC)cc3)C2)cc1 (centres undefined),"inconclusive: 20.6 µM [inhibitor, single point]",–
